These results are taken from publication PMC10896723.

The chains behind the UniProt entries cited, without tags or fusion partners.
UniProt Q96KP1: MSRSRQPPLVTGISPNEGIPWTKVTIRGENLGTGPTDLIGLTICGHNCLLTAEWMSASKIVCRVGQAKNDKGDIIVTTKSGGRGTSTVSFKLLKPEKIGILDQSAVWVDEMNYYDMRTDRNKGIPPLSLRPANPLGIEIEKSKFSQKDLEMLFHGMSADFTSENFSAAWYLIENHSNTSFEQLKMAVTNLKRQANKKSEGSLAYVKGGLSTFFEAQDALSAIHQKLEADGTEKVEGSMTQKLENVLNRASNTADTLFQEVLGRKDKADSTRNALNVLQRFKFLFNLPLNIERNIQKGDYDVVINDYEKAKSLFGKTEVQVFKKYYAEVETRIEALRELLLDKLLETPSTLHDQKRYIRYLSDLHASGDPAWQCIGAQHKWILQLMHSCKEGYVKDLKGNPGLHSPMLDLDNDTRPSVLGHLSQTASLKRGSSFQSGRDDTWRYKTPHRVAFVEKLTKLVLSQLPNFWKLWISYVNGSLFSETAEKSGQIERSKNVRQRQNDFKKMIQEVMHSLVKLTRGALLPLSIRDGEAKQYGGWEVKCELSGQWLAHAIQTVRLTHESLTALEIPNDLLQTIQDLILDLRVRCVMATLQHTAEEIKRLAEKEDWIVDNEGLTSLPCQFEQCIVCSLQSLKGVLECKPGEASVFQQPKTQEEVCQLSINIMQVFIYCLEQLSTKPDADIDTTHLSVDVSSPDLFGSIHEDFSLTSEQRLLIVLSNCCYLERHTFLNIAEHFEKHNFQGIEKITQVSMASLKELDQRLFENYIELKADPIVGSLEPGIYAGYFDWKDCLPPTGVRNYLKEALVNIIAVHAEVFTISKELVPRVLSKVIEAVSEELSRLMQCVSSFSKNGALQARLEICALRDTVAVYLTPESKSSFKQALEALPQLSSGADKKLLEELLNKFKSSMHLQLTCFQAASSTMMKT
UniProt Q8K1M6: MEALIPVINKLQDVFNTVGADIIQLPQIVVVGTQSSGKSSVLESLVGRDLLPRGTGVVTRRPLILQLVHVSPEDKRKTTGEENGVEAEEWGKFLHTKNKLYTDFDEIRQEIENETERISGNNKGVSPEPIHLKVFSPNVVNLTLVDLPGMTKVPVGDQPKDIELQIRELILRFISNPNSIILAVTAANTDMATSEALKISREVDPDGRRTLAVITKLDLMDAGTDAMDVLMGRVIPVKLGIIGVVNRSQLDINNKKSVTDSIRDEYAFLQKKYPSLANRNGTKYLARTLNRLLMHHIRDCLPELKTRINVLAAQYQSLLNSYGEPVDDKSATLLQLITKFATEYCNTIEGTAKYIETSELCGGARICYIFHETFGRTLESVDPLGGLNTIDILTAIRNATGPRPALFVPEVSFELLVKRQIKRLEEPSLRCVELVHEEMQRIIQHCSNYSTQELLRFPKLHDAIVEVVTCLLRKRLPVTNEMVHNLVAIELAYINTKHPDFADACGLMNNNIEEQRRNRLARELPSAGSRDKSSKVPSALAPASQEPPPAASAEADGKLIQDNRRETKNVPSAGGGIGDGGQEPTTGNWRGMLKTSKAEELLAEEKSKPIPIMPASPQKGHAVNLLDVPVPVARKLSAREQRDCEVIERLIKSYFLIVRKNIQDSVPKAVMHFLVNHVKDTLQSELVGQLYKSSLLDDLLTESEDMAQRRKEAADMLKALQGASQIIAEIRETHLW
UniProt P30153: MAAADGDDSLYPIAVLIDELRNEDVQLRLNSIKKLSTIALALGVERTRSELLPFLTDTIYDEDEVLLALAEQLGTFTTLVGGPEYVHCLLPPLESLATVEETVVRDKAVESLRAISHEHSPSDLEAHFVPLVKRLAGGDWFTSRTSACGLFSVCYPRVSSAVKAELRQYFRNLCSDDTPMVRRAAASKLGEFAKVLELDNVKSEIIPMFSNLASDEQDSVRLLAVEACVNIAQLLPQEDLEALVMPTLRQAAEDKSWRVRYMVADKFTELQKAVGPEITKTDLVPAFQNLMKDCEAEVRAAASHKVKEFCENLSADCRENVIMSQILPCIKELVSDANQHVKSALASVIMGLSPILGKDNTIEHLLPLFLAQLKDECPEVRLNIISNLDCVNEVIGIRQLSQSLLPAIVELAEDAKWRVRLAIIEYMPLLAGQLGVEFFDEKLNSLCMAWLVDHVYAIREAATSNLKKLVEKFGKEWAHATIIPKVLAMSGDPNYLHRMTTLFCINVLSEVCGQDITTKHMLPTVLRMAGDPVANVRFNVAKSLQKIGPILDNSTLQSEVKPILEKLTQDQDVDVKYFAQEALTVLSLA

Residue numbers refer to the chain shown, from its start. No constants are given. Whether binding was seen depends on the method and setting. Binding seen in cells or lysates may run through a third protein. Some binding calls cover weakened binding; strength is not graded here. Where a sequence is shown, tags or fusion partners need not be part of it.

The target in assay [1] is T1, Flag-RalA^S28N (UniProt P11233).
T1 sequence: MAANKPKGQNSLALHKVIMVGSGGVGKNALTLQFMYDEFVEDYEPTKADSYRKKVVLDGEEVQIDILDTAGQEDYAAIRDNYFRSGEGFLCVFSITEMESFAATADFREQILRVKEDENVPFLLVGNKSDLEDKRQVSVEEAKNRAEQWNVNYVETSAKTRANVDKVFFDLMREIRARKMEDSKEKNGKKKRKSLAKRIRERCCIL
The experiment in a line: co-IP; co-transfected HEK293T cells; lysis buffer or Drp1 buffer; 0.5-1 mg protein with Anti-Flag M2 Affinity gel at 4 °C overnight.

Assay [2] addresses T2, Flag-RalA^G23V (UniProt P11233).
T2 sequence: T1 sequence with G23V, N28S
Described as above.

For assay [3], the target named is T3, Flag-RalA^WT (UniProt P11233).
T3 sequence: T1 sequence with N28S
The assay is described as above.

For assay [4], the target named is T3, Flag-RalA^WT. In words: pull-down; Flag-RalA^WT from HEK293T lysate held on Anti-Flag M2 Affinity gel, washed, incubated with GFP-PP2Aa HEK293T lysate at 4 °C overnight; lysis buffer 25 mM Tris-HCl, 130 mM NaCl, 10 mM MgCl2, 10% glycerol, 0.5% NP-40; only the target purified.
The target of assay [5] is T3, Flag-RalA^WT. In words: pull-down; Flag-RalA^WT beads loaded in vitro with 2 mM GTPγS (1 h, 25 °C), then incubated with GFP-PP2Aa HEK293T lysate at 4 °C overnight; only the target purified.
Assay [6] concerns the target T3, Flag-RalA^WT. In words: pull-down; Flag-RalA^WT beads loaded in vitro with 200 μM GDP (1 h, 25 °C), then incubated with GFP-PP2Aa HEK293T lysate at 4 °C overnight; only the target purified.

With Sec5 (from UniProt Q96KP1 1-924), the binding entry in assay [1] is on record as “no binding”; in assay [2], “binds”.

Turning to Myc-Drp1 (from UniProt Q8K1M6 1-736), the binding entry in assay [1], in assay [2] and in assay [3] was “binds” each time.

On to GFP-PP2Aa (from UniProt P30153 1-589), for which the binding result in assay [2] was “binds”; in assay [4], “binds”; in assay [5], “binds”; in assay [6], “no binding (condition: RalA loaded with GDP (200 μM))”.
